Experimental findings from a collection of fitness landscapes (doi:10.1016/j.celrep.2020.107928) are described below.

B1: Caulobacter ParB omega fusion; a variant is named by its letters at X, in order, B8GW30 (parent)
chain: MESVVVGEPGMSEGRRGLGRGLSALLGEVDAAPAQAPGEQLGGSREAPIEILQRNPDQPRRTFREEDLEDLSNSIREKGVLQPILVRPSPDTAGEYQIVAGERAWRAAQRAGLKTVPIMVRELDDLAVLEIGIIENVQRADLNVLEEALSYKVLMEKFERTQENIAQTIGKSXSHVANXMRLLXLPDEVQSYLVSGELTAXHARAIAAAADPVALAKQIIEGGLSVRETEALARKAPNLSAGKSKGGRPPRVKDTDTQALESDLSSVLGLDVSIDHRGSTGTLTITYATLEQLDDLCNRLTRGI

In all, about 81,000 sequences were measured (“one-hybrid fitness for binding parS DNA”: median about -0.17, highest 2% from about 0.51 on). Some of the results follow. A value given as a limit tells only on which side of the number the result lay.

In the assay the parent is B1. In words: one-hybrid fitness for binding parS DNA (scaled: cognate 1, non-cognate 0); higher = stronger binding. The settings on record: with parS DNA site. In a few lines: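 On M9-minus-histidine containing 0.1 mM IPTG and 5 mM 3-AT, E. coli USO cells with a HIS3 reporter, site 19 bp from the promoter, grew 48 hours at 37°C to select Caulobacter ParB libraries randomised at four specificity codons. Plasmids from before and after were Illumina-sequenced, with three replicate libraries pooled and variants under 10 reads left out. Fitness is the log change in variant-to-wild-type read ratio, rescaled against cognate and non-cognate.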
With PTQT, the “one-hybrid fitness for binding parS DNA” value is at most 0.2.

Turning to RDGI, the “one-hybrid fitness for binding parS DNA” value was at most 0.2. Take KHAY: the “one-hybrid fitness for binding parS DNA” value was at most 0.2. On to HDVA, for which the “one-hybrid fitness for binding parS DNA” value was at most 0.2. With AQRF, the “one-hybrid fitness for binding parS DNA” value is at most 0.2. With MAQS the figure was at most 0.2; with SPFR, at most 0.2; with QSHS, at most 0.2. As for LIMR, the “one-hybrid fitness for binding parS DNA” value was at most 0.2.

With QYFS, the “one-hybrid fitness for binding parS DNA” value is at most 0.2. Take HQQS: the “one-hybrid fitness for binding parS DNA” value was at most 0.2. Turning to ISPI, the “one-hybrid fitness for binding parS DNA” value is at most 0.2. With NHYS the figure was at most 0.2. Regarding SMDG, the “one-hybrid fitness for binding parS DNA” value is at most 0.2. As for VART, the “one-hybrid fitness for binding parS DNA” value was at most 0.2. For EHPL the value was at most 0.2. In the case of KRQH, the “one-hybrid fitness for binding parS DNA” value is at most 0.2. With PITV, the “one-hybrid fitness for binding parS DNA” value was at most 0.2. For LSPL the value was at most 0.2. On to RCFG, for which the “one-hybrid fitness for binding parS DNA” value was determined as 1.01. VFCL: the “one-hybrid fitness for binding parS DNA” value was at most 0.2. For FAGR the value was at most 0.2; for DGHY, at most 0.2. For PLDK, the “one-hybrid fitness for binding parS DNA” value is at most 0.2. As to WLGW, the “one-hybrid fitness for binding parS DNA” value was at most 0.2. Regarding ISSW, the “one-hybrid fitness for binding parS DNA” value was at most 0.2. With TACV the figure was at most 0.2; with KMAA, at most 0.2.

In the case of ATKY, the “one-hybrid fitness for binding parS DNA” value was at most 0.2. For YPPL, the “one-hybrid fitness for binding parS DNA” value is at most 0.2.

With TRCK, the “one-hybrid fitness for binding parS DNA” value was at most 0.2.

As for TLQT, the “one-hybrid fitness for binding parS DNA” value is at most 0.2.

For RLLD, the “one-hybrid fitness for binding parS DNA” value was determined as 0.231. With PCPD, the “one-hybrid fitness for binding parS DNA” value is at most 0.2. Turning to RKFG, the “one-hybrid fitness for binding parS DNA” value is 0.946. As to IARQ, the “one-hybrid fitness for binding parS DNA” value was at most 0.2.

As to TIMD, the “one-hybrid fitness for binding parS DNA” value is at most 0.2.

Consider RQLV, for which the “one-hybrid fitness for binding parS DNA” value is at most 0.2. For SYDS the value was at most 0.2; for RAWV, at most 0.2; for RQLK, at most 0.2.

Regarding INEL, the “one-hybrid fitness for binding parS DNA” value is at most 0.2. Regarding LCSI, the “one-hybrid fitness for binding parS DNA” value was at most 0.2. With YVKC, the “one-hybrid fitness for binding parS DNA” value is at most 0.2. Take CCNC: the “one-hybrid fitness for binding parS DNA” value was at most 0.2. Take RYYF: the “one-hybrid fitness for binding parS DNA” value stood at 0.22. Regarding VPHD, the “one-hybrid fitness for binding parS DNA” value was at most 0.2. Turning to SFLI, the “one-hybrid fitness for binding parS DNA” value was at most 0.2. For MYGF the value was at most 0.2. Turning to QMSC, the “one-hybrid fitness for binding parS DNA” value was at most 0.2. On to TYHH, for which the “one-hybrid fitness for binding parS DNA” value is at most 0.2.

Take SWVD: the “one-hybrid fitness for binding parS DNA” value was at most 0.2.

As to PFSE, the “one-hybrid fitness for binding parS DNA” value was at most 0.2. With AFRT, the “one-hybrid fitness for binding parS DNA” value is at most 0.2. For EQDS, the “one-hybrid fitness for binding parS DNA” value is at most 0.2. TGCE: the “one-hybrid fitness for binding parS DNA” value is at most 0.2. Take RHPH: the “one-hybrid fitness for binding parS DNA” value was at most 0.2.

With RHQQ, the “one-hybrid fitness for binding parS DNA” value was at most 0.2. With KHQS the figure was at most 0.2; with PQTY, at most 0.2; with SKKY, at most 0.2.

Regarding VSAL, the “one-hybrid fitness for binding parS DNA” value was at most 0.2. For ITLC the value was at most 0.2; for IPKY, at most 0.2; for FRMC, at most 0.2. As for PEHS, the “one-hybrid fitness for binding parS DNA” value was at most 0.2. YMMV: the “one-hybrid fitness for binding parS DNA” value was at most 0.2. With SAWR the figure was at most 0.2; with IKMM, at most 0.2. Consider RFMT, for which the “one-hybrid fitness for binding parS DNA” value is 0.754.

For the variant HDLV, the “one-hybrid fitness for binding parS DNA” value was at most 0.2. Take LLSI: the “one-hybrid fitness for binding parS DNA” value was at most 0.2.

For IMSC, the “one-hybrid fitness for binding parS DNA” value was at most 0.2. Regarding FGIY, the “one-hybrid fitness for binding parS DNA” value was at most 0.2.

Consider ASLN, for which the “one-hybrid fitness for binding parS DNA” value is at most 0.2. For RFIE, the “one-hybrid fitness for binding parS DNA” value was at most 0.2. As for QIMM, the “one-hybrid fitness for binding parS DNA” value is at most 0.2.

With IMAV, the “one-hybrid fitness for binding parS DNA” value was at most 0.2.

Regarding LQSR, the “one-hybrid fitness for binding parS DNA” value was at most 0.2.

As to AHMA, the “one-hybrid fitness for binding parS DNA” value is at most 0.2. For WIRR the value was at most 0.2.

For TLIF, the “one-hybrid fitness for binding parS DNA” value was at most 0.2. With AVPI the figure was at most 0.2; with HMLC, at most 0.2. With HYDV the figure was at most 0.2.

For the variant AIRS, the “one-hybrid fitness for binding parS DNA” value is at most 0.2. For PNWG the value was at most 0.2; for YVQE, at most 0.2. Turning to FWGR, the “one-hybrid fitness for binding parS DNA” value is at most 0.2. With FNQL the figure was at most 0.2. For RGDV, the “one-hybrid fitness for binding parS DNA” value is at most 0.2.

For HLHG, the “one-hybrid fitness for binding parS DNA” value was at most 0.2. With AIFT, the “one-hybrid fitness for binding parS DNA” value is at most 0.2. In the case of FTQV, the “one-hybrid fitness for binding parS DNA” value is at most 0.2.

As for YDLG, the “one-hybrid fitness for binding parS DNA” value was at most 0.2. With PLPN the figure was at most 0.2. With TGCM, the “one-hybrid fitness for binding parS DNA” value is at most 0.2. LQTK: the “one-hybrid fitness for binding parS DNA” value is at most 0.2.

Take KGFI: the “one-hybrid fitness for binding parS DNA” value was at most 0.2. For NSSN the value was at most 0.2. Regarding ATCC, the “one-hybrid fitness for binding parS DNA” value is at most 0.2.

Turning to QNIE, the “one-hybrid fitness for binding parS DNA” value is at most 0.2. As for SERG, the “one-hybrid fitness for binding parS DNA” value was at most 0.2. Regarding SETT, the “one-hybrid fitness for binding parS DNA” value is at most 0.2.

For LHEC, the “one-hybrid fitness for binding parS DNA” value is at most 0.2. In the case of FTAQ, the “one-hybrid fitness for binding parS DNA” value is at most 0.2. Take TMTV: the “one-hybrid fitness for binding parS DNA” value is at most 0.2. For VRSE the value was at most 0.2; for PCYG, at most 0.2; for IQRL, at most 0.2. For KWRA, the “one-hybrid fitness for binding parS DNA” value is at most 0.2. For RSFG the value was 0.94; for CLDY, at most 0.2; for GLKK, at most 0.2.

For the variant RLDC, the “one-hybrid fitness for binding parS DNA” value turned out to be 0.938. As for QTME, the “one-hybrid fitness for binding parS DNA” value was at most 0.2. For the variant CRTT, the “one-hybrid fitness for binding parS DNA” value was at most 0.2. Turning to DWST, the “one-hybrid fitness for binding parS DNA” value is at most 0.2. For GVRL the value was at most 0.2; for KFRN, at most 0.2; for ILTG, at most 0.2. On to IDRP, for which the “one-hybrid fitness for binding parS DNA” value was at most 0.2.

For the variant AAFI, the “one-hybrid fitness for binding parS DNA” value was at most 0.2.

In the case of PWNG, the “one-hybrid fitness for binding parS DNA” value was at most 0.2. With ASPY the figure was at most 0.2. For the variant WAGG, the “one-hybrid fitness for binding parS DNA” value is at most 0.2. For KRSM the value was at most 0.2; for EAQQ, at most 0.2; for HDRW, at most 0.2. MIES: the “one-hybrid fitness for binding parS DNA” value is at most 0.2.

For the variant VKDR, the “one-hybrid fitness for binding parS DNA” value is at most 0.2. Consider LYPA, for which the “one-hybrid fitness for binding parS DNA” value was at most 0.2.

Turning to SGRP, the “one-hybrid fitness for binding parS DNA” value was at most 0.2. NTKI: the “one-hybrid fitness for binding parS DNA” value is at most 0.2.

As to PYQT, the “one-hybrid fitness for binding parS DNA” value is at most 0.2.

For the variant VAAK, the “one-hybrid fitness for binding parS DNA” value was at most 0.2. With ANFK the figure was at most 0.2; with VYRY, at most 0.2; with GVKR, at most 0.2. With FMWR the figure was at most 0.2; with ALLN, at most 0.2; with LAAV, at most 0.2. Take HPQQ: the “one-hybrid fitness for binding parS DNA” value is at most 0.2. Regarding NTSF, the “one-hybrid fitness for binding parS DNA” value was at most 0.2.

For the variant FRHA, the “one-hybrid fitness for binding parS DNA” value was at most 0.2.

With IDLS, the “one-hybrid fitness for binding parS DNA” value was at most 0.2. For PAEA the value was at most 0.2. In the case of SRMD, the “one-hybrid fitness for binding parS DNA” value was at most 0.2. On to VCDR, for which the “one-hybrid fitness for binding parS DNA” value is at most 0.2. Regarding TWLY, the “one-hybrid fitness for binding parS DNA” value was at most 0.2.

Take FLPM: the “one-hybrid fitness for binding parS DNA” value is at most 0.2.

As to DHNQ, the “one-hybrid fitness for binding parS DNA” value was at most 0.2. Take RSCQ: the “one-hybrid fitness for binding parS DNA” value was at most 0.2.
